Measured values: the supplement of paper PMC12015411
Bacterial growth in Mueller-Hinton broth at 37 °C with the drug at the dose given, alone or with nitroxoline. Checkerboards on E. coli BW25113: OD600 at the end of exponential growth as a fraction of no-drug wells. Colistin series: OD595 at 10.75 h as a fraction of the colistin-free well. 1 = full growth, lower = more inhibition. No active / inactive call per well. Checkerboard doses stop near each drug's IC75, and their values pile up at 1, as if capped there. Colistin and gentamicin are mixtures; one drawing stands for each.

Test system: Escherichia coli BW25113
Test: growth relative to no-drug wells (fraction of no-drug control); higher = more growth, less inhibition
Procedure: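 8 x 8 checkerboard in cation-adjusted Mueller-Hinton broth at 37 °C; OD600 at the end of exponential growth as a fraction of no-drug wells, two biological replicates.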

O=C(O)c1cn(C2CC2)c2cc(N3CCNCC3)c(F)cc2c1=O [Ciprofloxacin]
nitroxoline concentration 0 µg/ml
Conditions	growth
0.0005 µg/ml	0.942
0.0008 µg/ml	0.904
0.001 µg/ml	0.9293
0.0016 µg/ml	0.835
0.0019 µg/ml	0.792
0.0033 µg/ml	0.469
0.0038 µg/ml	0.337

O=C(O)c1cn(C2CC2)c2cc(N3CCNCC3)c(F)cc2c1=O [Ciprofloxacin] + Oc1ccc([N+](=O)[O-])c2cccnc12 [nitroxoline]
growth
Conditions	nitroxoline concentration 0.136 µg/ml	nitroxoline concentration 0.255 µg/ml	nitroxoline concentration 0.374 µg/ml	nitroxoline concentration 0.493 µg/ml	nitroxoline concentration 0.612 µg/ml	nitroxoline concentration 0.731 µg/ml	nitroxoline concentration 0.85 µg/ml
0.0005 µg/ml	1	1	0.839	0.653	0.585	0.469	0.432
0.0008 µg/ml	1	1	0.8	0.637	0.547	0.44	0.427
0.001 µg/ml	1	0.989	0.868	0.6767	0.553	0.507	0.426
0.0016 µg/ml	0.953	0.8922	0.781	0.636	0.535	0.51	0.436
0.0019 µg/ml	0.883	0.932	0.796	0.682	0.527	0.499	0.434
0.0033 µg/ml	0.551	0.703	0.589	0.486	0.445	0.365	0.376
0.0038 µg/ml	0.467	0.475	0.403	0.251	0.203	0.173	0.242

CC[C@H]1OC(=O)[C@H](C)[C@@H](O[C@H]2C[C@@](C)(OC)[C@@H](O)[C@H](C)O2)[C@H](C)[C@@H](O[C@@H]2O[C@H](C)C[C@H](N(C)C)[C@H]2O)[C@](C)(OC)C[C@@H](C)C(=O)[C@H](C)[C@@H](O)[C@]1(C)O [Clarithromycin]
nitroxoline concentration 0 µg/ml
Conditions	growth
0.958 µg/ml	0.952
1.7983 µg/ml	0.913
2.6387 µg/ml	0.861
3.479 µg/ml	0.851
4.3193 µg/ml	0.785
5.1597 µg/ml	0.787
6 µg/ml	0.89

CC[C@H]1OC(=O)[C@H](C)[C@@H](O[C@H]2C[C@@](C)(OC)[C@@H](O)[C@H](C)O2)[C@H](C)[C@@H](O[C@@H]2O[C@H](C)C[C@H](N(C)C)[C@H]2O)[C@](C)(OC)C[C@@H](C)C(=O)[C@H](C)[C@@H](O)[C@]1(C)O [Clarithromycin] + Oc1ccc([N+](=O)[O-])c2cccnc12 [nitroxoline]
growth
Conditions	nitroxoline concentration 0.136 µg/ml	nitroxoline concentration 0.255 µg/ml	nitroxoline concentration 0.374 µg/ml	nitroxoline concentration 0.493 µg/ml	nitroxoline concentration 0.612 µg/ml	nitroxoline concentration 0.731 µg/ml	nitroxoline concentration 0.85 µg/ml
0.958 µg/ml	0.759	0.708	0.62	0.539	0.405	0.298	0.252
1.7983 µg/ml	0.742	0.672	0.583	0.369	0.366	0.292	0.265
2.6387 µg/ml	0.692	0.625	0.501	0.559	0.424	0.3	0.254
3.479 µg/ml	0.698	0.588	0.484	0.384	0.296	0.273	0.245
4.3193 µg/ml	0.736	0.661	0.459	0.351	0.277	0.284	0.243
5.1597 µg/ml	0.732	0.602	0.471	0.326	0.216	0.219	0.227
6 µg/ml	0.782	0.515	0.428	0.315	0.255	0.234	0.255

Oc1c(I)cc(Cl)c2cccnc12 [Clioquinol]
nitroxoline concentration 0 µg/ml
Conditions	growth
0.0938 µg/ml	0.965
0.1625 µg/ml	1
0.1875 µg/ml	1
0.325 µg/ml	0.922
0.375 µg/ml	0.942
0.65 µg/ml	0.9375
0.75 µg/ml	0.9674

Oc1c(I)cc(Cl)c2cccnc12 [Clioquinol] + Oc1ccc([N+](=O)[O-])c2cccnc12 [nitroxoline]
growth
Conditions	nitroxoline concentration 0.136 µg/ml	nitroxoline concentration 0.255 µg/ml	nitroxoline concentration 0.374 µg/ml	nitroxoline concentration 0.493 µg/ml	nitroxoline concentration 0.612 µg/ml	nitroxoline concentration 0.731 µg/ml	nitroxoline concentration 0.85 µg/ml
0.0938 µg/ml	1	1	0.777	0.556	0.548	0.442	0.347
0.1625 µg/ml	1	1	0.738	0.559	0.502	0.478	0.281
0.1875 µg/ml	1	1	0.868	0.637	0.554	0.491	0.319
0.325 µg/ml	1	1	0.962	0.71	0.582	0.47	0.387
0.375 µg/ml	1	1	0.934	0.688	0.583	0.437	0.308
0.65 µg/ml	1	1	0.908	0.643	0.558	0.52	0.302
0.75 µg/ml	1	1	0.751	0.605	0.579	0.383	0.336

CCC(C)CCCC(=O)N[C@@H](CCN)C(=O)N[C@H](C(=O)N[C@@H](CCN)C(=O)N[C@H]1CCNC(=O)[C@H]([C@@H](C)O)NC(=O)[C@H](CCN)NC(=O)[C@H](CCN)NC(=O)[C@H](CC(C)C)NC(=O)[C@@H](CC(C)C)NC(=O)[C@H](CCN)NC1=O)[C@@H](C)O (stereo partly drawn) [Colistin]
nitroxoline concentration 0 µg/ml
Conditions	growth
0.0798 µg/ml	1
0.1499 µg/ml	0.95
0.2199 µg/ml	0.0121
0.2899 µg/ml	0.01768
0.3599 µg/ml	0.00952
0.43 µg/ml	0.00603
0.5 µg/ml	0.00119

CCC(C)CCCC(=O)N[C@@H](CCN)C(=O)N[C@H](C(=O)N[C@@H](CCN)C(=O)N[C@H]1CCNC(=O)[C@H]([C@@H](C)O)NC(=O)[C@H](CCN)NC(=O)[C@H](CCN)NC(=O)[C@H](CC(C)C)NC(=O)[C@@H](CC(C)C)NC(=O)[C@H](CCN)NC1=O)[C@@H](C)O (stereo partly drawn) [Colistin] + Oc1ccc([N+](=O)[O-])c2cccnc12 [nitroxoline]
growth
Conditions	nitroxoline concentration 0.136 µg/ml	nitroxoline concentration 0.255 µg/ml	nitroxoline concentration 0.374 µg/ml	nitroxoline concentration 0.493 µg/ml	nitroxoline concentration 0.612 µg/ml	nitroxoline concentration 0.731 µg/ml	nitroxoline concentration 0.75 µg/ml
0.0798 µg/ml	0.942	0.893	0.879	0.701	0.498	0.485	0.299
0.1499 µg/ml	0.544	0.441	0.399	0.0369	0	0	0
0.2199 µg/ml	0.0287	0	0	0	0.000965	0	0.00164
0.2899 µg/ml	0.00579	0	0	0.00438	0	0	0.000241
0.3599 µg/ml	0	0.000674	0	0	0	0	0.00372
0.43 µg/ml	0	0	0	0.00191	0.00202	0.00655	0.000674
0.5 µg/ml	0	0	0	0	0.000899	0	0

C[C@H]1c2cccc(O)c2C(=O)C2=C(O)[C@]3(O)C(=O)C(C(N)=O)=C(O)[C@@H](N(C)C)[C@@H]3[C@@H](O)[C@@H]21 [Doxycycline]
nitroxoline concentration 0 µg/ml
Conditions	growth
0.065 µg/ml	0.983
0.1125 µg/ml	0.955
0.13 µg/ml	0.856
0.225 µg/ml	0.67
0.26 µg/ml	0
0.45 µg/ml	0.0858
0.52 µg/ml	0.0384

C[C@H]1c2cccc(O)c2C(=O)C2=C(O)[C@]3(O)C(=O)C(C(N)=O)=C(O)[C@@H](N(C)C)[C@@H]3[C@@H](O)[C@@H]21 [Doxycycline] + Oc1ccc([N+](=O)[O-])c2cccnc12 [nitroxoline]
growth
Conditions	nitroxoline concentration 0.136 µg/ml	nitroxoline concentration 0.255 µg/ml	nitroxoline concentration 0.374 µg/ml	nitroxoline concentration 0.493 µg/ml	nitroxoline concentration 0.612 µg/ml	nitroxoline concentration 0.731 µg/ml	nitroxoline concentration 1.1 µg/ml
0.065 µg/ml	0.975	0.867	0.8647	0.655	0.614	0.256	0.109
0.1125 µg/ml	0.872	0.984	0.9935	0.619	0.561	0.27	0.148
0.13 µg/ml	0.892	0.745	0.829	0.6	0.59	0.276	0.172
0.225 µg/ml	0.645	0.607	0.625	0.482	0.333	0.173	0.0998
0.26 µg/ml	0.0141	0.0132	0.0202	0.0132	0.0299	0.0299	0.0281
0.45 µg/ml	0.0733	0.0429	0.0464	0.0517	0.0519	0.0498	0.0368
0.52 µg/ml	0.0495	0.0462	0.0397	0.0483	0.0365	0.0283	0.0289

C[C@@H](O)[C@H]1C(=O)N2C(C(=O)O)=C(S[C@@H]3CN[C@H](C(=O)Nc4cccc(C(=O)O)c4)C3)[C@H](C)[C@H]12 [Ertapenem]
nitroxoline concentration 0 µg/ml
Conditions	growth
0.001 µg/ml	0.813
0.0018 µg/ml	0.731
0.002 µg/ml	0.774
0.0035 µg/ml	0.6516
0.004 µg/ml	0.596
0.007 µg/ml	0.246
0.008 µg/ml	0.104

C[C@@H](O)[C@H]1C(=O)N2C(C(=O)O)=C(S[C@@H]3CN[C@H](C(=O)Nc4cccc(C(=O)O)c4)C3)[C@H](C)[C@H]12 [Ertapenem] + Oc1ccc([N+](=O)[O-])c2cccnc12 [nitroxoline]
growth
Conditions	nitroxoline concentration 0.136 µg/ml	nitroxoline concentration 0.255 µg/ml	nitroxoline concentration 0.374 µg/ml	nitroxoline concentration 0.493 µg/ml	nitroxoline concentration 0.612 µg/ml	nitroxoline concentration 0.731 µg/ml	nitroxoline concentration 0.85 µg/ml
0.001 µg/ml	1	1	0.777	0.601	0.46	0.408	0.312
0.0018 µg/ml	0.968	0.938	0.756	0.539	0.434	0.376	0.328
0.002 µg/ml	0.974	1	0.689	0.5	0.422	0.413	0.309
0.0035 µg/ml	0.734	0.669	0.579	0.484	0.459	0.427	0.317
0.004 µg/ml	0.749	0.797	0.699	0.512	0.406	0.382	0.337
0.007 µg/ml	0.424	0.529	0.475	0.34	0.317	0.318	0.262
0.008 µg/ml	0.305	0.425	0.358	0.245	0.3299	0.2893	0.23

CC[C@H]1OC(=O)[C@H](C)[C@@H](O[C@H]2C[C@@](C)(OC)[C@@H](O)[C@H](C)O2)[C@H](C)[C@@H](O[C@@H]2O[C@H](C)C[C@H](N(C)C)[C@H]2O)[C@](C)(O)C[C@@H](C)C(=O)[C@H](C)[C@@H](O)[C@]1(C)O [Erythromycin]
nitroxoline concentration 0 µg/ml
Conditions	growth
1.1176 µg/ml	0.958
2.098 µg/ml	0.891
3.0784 µg/ml	0.805
4.0588 µg/ml	0.731
5.0392 µg/ml	0.714
6.0196 µg/ml	0.711
7 µg/ml	0.646
